# ChEMBL document CHEMBL4888484, “Replenishing the malaria drug discovery pipeline: Screening and hit evaluation of the MMV Hit Generation Library 1 (HGL1) against asexual blood stage Plasmodium falciparum ,using a nano luciferase reporter read-out” (2022)
# In all, about 150,000 compounds went through this assay and about 540 (0.36%) showed an effect of 50% or more. This is one part of the list.
# System: Plasmodium falciparum
# Assay: Primary screen in NF54 nanoGlo assay, in single point, at 2uM, 72h; a lower Z score goes with more inhibition
# Assay type: functional, Erythrocyte
# Details: timepoint 72 hour
Structure (SMILES),% Inhibition [%],Z score
CC[C@@H](Cc1ccccc1Br)C(=O)NCc1ncc[nH]1,-5,0.61
NS(=O)(=O)CCN1CCN(C(=O)c2cccc([C@H]3CCOC3)c2)CC1,-2,0.29
O=C(Nc1ccc(-n2cnnn2)cc1)c1coc(-c2ccccc2)n1,-6,1.22
CN1N=C(C(=O)NCc2ccc(F)c(Cn3ccnc3)c2)CCC1=O,-3,0.59
O=C(CCc1ccccc1)Nc1ccc2[nH]ncc2c1,-10,1.48
O=C(NC1CCCCCC1)c1csc2c1CCCC2,-14,1.82
COc1ccccc1CN1C(=O)N(c2cccc(C(F)(F)F)c2)[C@H](N(O)C(=O)Nc2cccc(C(F)(F)F)c2)C1(C)C,0,0
CO[C@@H]1C[C@@H](c2nc(C)n[nH]2)N(C(=O)CCc2cccc3c2OCO3)C1,-8,1.04
Cc1ccc(-c2noc3nc(C)cc(C(=O)N4CCCCCC4)c23)cc1,26,-2.98
CC[C@H](NCC(=O)N(CC)c1ccccc1)c1ccncc1,1,-0.22
COC(=O)N1CCc2ccc(F)cc2[C@@H]1C(=O)NCCc1ccccc1OC,-3,0.57
COc1cc2nc(N(C)C)c(CNCCN3CCOCC3)cc2c(OC)c1OC,-2,0.31
Cn1cc(N2CC[C@H](NC(=O)C(=O)Nc3c(F)cccc3F)C2)cn1,-2,0.31
Nc1nc2c(c(NCCc3ccc(S(N)(=O)=O)cc3)n1)CCCC2,11,-1.39
O=C(c1ccc2c(c1)OCO2)[C@H]1CCCN(C(=O)CCc2cnccn2)C1,10,-1.32
CC(C)c1ccc(CN2CC[C@@H](n3c(=O)[nH]c4cccnc43)C2)cc1,-5,0.96
N#Cc1c(NC(=O)c2ccncc2)sc2c1CCCCC2,-6,0.72
COc1cc(F)cc(NC(=O)NC[C@H](C)c2nc(C)cs2)c1,-21,2.37
O=C(Cc1noc2ccccc12)N1CCC(n2cnc3ncccc3c2=O)CC1,-9,1.61
O=C(CC(=O)NC(=O)c1ccc(Cl)cc1Cl)NC(=O)c1ccc(Cl)cc1Cl,-1,0.21
O=S1(=O)C[C@H](N2CCN(c3ccccc3F)CC2)[C@@H](S(=O)(=O)c2ccccc2)C1,41,-5.2
O=C(Nc1nc(-c2ccccc2)cs1)c1cocn1,-6,0.89

Structure (SMILES),% Inhibition [%],Z score
CCOC1(c2nc(Cc3conc3C)no2)CCCC1,6,-0.78
O=C(c1ccnc(-c2cc(F)cc3cccnc23)c1)N1CCOCC1,-13,2
O=C(Cn1c(-c2cnccn2)nc2ccccc21)Nc1nc(-c2ccco2)cs1,-3,0.55
C[C@@H](Cn1cncn1)NC(=O)c1ncc(F)cc1F,9,-1.23
O=C1c2ccccc2[C@@H]2C[C@H](O)c3cccn3N12,-16,1.88
COc1ccccc1CCCN1C(=O)C(C)C(C)C1=O (stereo not given),-5,0.71
Cc1nc(CC(=O)NCc2ccccc2F)sc1C(=O)NCc1ccccc1,-12,1.63
O=C(Nc1ccc2oc(C3CC3)nc2c1)C(=O)N[C@H]1CCOc2ccccc21,0,-0.01
Nc1nc2c(c(NCCOc3ccc(Cl)cc3)n1)CCNCC2,-3,0.58
O=c1[nH]c(-c2cnccn2)nc2cc3ccccc3cc12,-8,0.78
O=C(NCC(=O)N1CCC1)c1cccc(F)c1,7,-1.11
Cc1ocnc1-c1nc(-c2ccccn2)no1,0,-0.04
CC[C@@H]1NC(=O)N(CCCOC(C)c2ccccc2)C1=O (stereo not given in full),-1,0.1
CCn1nccc1C=C(C)c1ncccn1,1,-0.23
CCc1nnsc1C(=O)NC1CCCCCC1,37,-5.05
Cc1cccc(-c2noc([C@@H]3CCCN3)n2)c1,-3,0.48
FC(F)(F)Oc1ccc(C2(NCc3cn[nH]c3)CC2)cc1,2,-0.17
CN(C)c1nc2c(c(N3CCCC3)n1)CCN(Cc1cnn(C)c1)CC2,3,-0.35
COCCCn1ccc(-c2cccc(-c3cnccn3)c2)n1,-9,1.23
C[C@H]1C(=O)N(C)CCN1c1ncnc2c(F)cccc12,0,0.03
Cc1cc([C@H](C)NC(=O)Nc2ccc(N3CCCC3)c(F)c2)c(C)s1,9,-1.64
Cc1nc(CN2CCN(C(=O)c3ccccn3)[C@H]3CS(=O)(=O)C[C@H]32)no1,8,-1.55

Structure (SMILES),% Inhibition [%],Z score
Cc1cnc(Cn2cnc(-c3ccccc3)c2-c2cc(C)c(C)o2)cn1,-14,2.09
CC(C)CC1(C(=O)NCc2nnc3n2CCN(C)C3=O)CCCC1,-13,1.57
CCn1cnnc1CNC(=O)c1ccc2c(c1)OCO2,0,0.01
CCOC(=O)CC1(NC(=O)N2CCN(CC)c3ncccc32)CCCCC1,-22,2.53
CO[C@](C)(C(=O)O)C(=O)N1CCc2cc(-c3ccccc3)ccc21,-7,0.92
Cc1nc(Nc2ccc3c(c2)OCCO3)cc(-c2ccccc2)n1,5,-0.89
O=C(N[C@@H]1COCC[C@@H]1OCc1ccccc1)c1cccc(F)c1F,-2,0.39
O=C(NCCn1c(=O)[nH]c2ccsc2c1=O)[C@H]1CCS(=O)(=O)C1,-2,0.39
Cc1cc(C)c(CNC(=O)N2CCCCCCC2)cn1,-6,1.06
O=C(NCCC1=CCCCC1)c1cc2n(n1)CCCO2,-21,3.27
Cc1cccc2c1cc(C(=O)N1CC[C@@]3(CCCN(CCO)C3=O)C1)n2C,-8,1.38
CCCn1cc(NC(=O)C(=O)Nc2ccnn2-c2ccncc2)cn1,-7,0.69
CCc1cc(C(=O)N2CC[C@@]3(CCCN(Cc4cccc(OC)c4)C3)C2)on1,-5,0.79
Cc1cc(C#N)ccc1S(=O)(=O)N1CC(=O)Nc2c(C)ccnc21,-4,0.48
CCC(=O)N1CCCN(CCc2ccc(CC)cc2)CC1,-3,0.42
CC(C)(C)OC(=O)N1CCN(C2CCCN(C(=O)C3CC3c3ccco3)C2)C(=O)C1 (stereo not given),-7,0.62
CCn1cnnc1CN1CCC2(CCC(=O)N(CCOC)C2)CC1,1,-0.19
Cc1cn(-c2c(F)cccc2F)nc1C(=O)N(C)CC1(O)CCCC1,-2,0.3
CCc1cc(C(=O)NCCN2CCOCC2)cs1,-7,1.05
O=C(C[C@H](c1ccc(F)cc1)c1c[nH]c2ccccc12)N1CCCC1,-9,1.18
O=C(CN(CC1CC1)C(=O)C1CCCC1)Nc1nc(-c2ccccc2)cn1-c1ccc(F)c(Cl)c1,-9,1.27
C[C@@H](c1ccccn1)N(C)c1cc(NCC2CC2)ncn1,-9,0.79

Structure (SMILES),% Inhibition [%],Z score
Cc1nc2c(NCc3csc4c3CCCC4)ncnc2o1,0,0.04
Cn1c(=O)n(CC(=O)NCCCN2CCOCC2)c(=O)c2cnc(-c3ccccc3)nc21,-5,0.8
COCCn1cc(NC(=O)C2CCC(N3CCOCC3)CC2)cn1 (stereo not given),-18,2.77
CCOc1c(Br)cc(C2Nc3ccc(C)cc3[C@H]3OCC[C@@H]23)cc1OC (stereo not given in full),-3,0.54
c1ccc(-c2cc3c(N4CCn5ccnc5C4)ncnc3s2)cc1,1,-0.13
CC[C@@](C)(C#N)NC(=O)c1ccc(-c2ccco2)nc1C,-11,1.43
COCCOC[C@]1(CNC(=O)c2ccc(OC)cc2)C[C@@H](O)[C@@H](O)C1,26,-2.94
COc1cccc(-c2nnc(NC(=O)CCN(C(=O)c3ccccc3F)C3CCCCC3)s2)c1,-17,2.4
C=CCNC(=O)Cc1nnc2ccc(-c3nc(CC)no3)cn12,-2,0.29
COc1ccc(C2=C[C@@H](c3ccccc3Cl)n3nc(-c4ccc(Cl)cc4)nc3N2)cc1,-8,1.09
COc1cccc(CN2CC(C(=O)NC3CC4CCC3C4)CC2=O)c1 (stereo not given),-3,0.32
CC(C)=CCN1C(=O)[C@@H]2CC[C@H]1CN(C(=O)c1ccc3c(c1)OCO3)C2,-9,0.82
C[C@H](NC(=O)c1ccccc1)C(C)(C)C,3,-0.42
O=C(N[C@@H]1CCCc2c(F)cc(F)cc21)c1cc2n(n1)CCO2,9,-1.16
Cc1ccccc1Cn1nnc2cc(C(=O)NC3CCN(Cc4ccccc4)CC3)ccc21,-17,1.71
COC1CCC(N(C)S(=O)(=O)C[C@H]2CCOC2)CC1 (stereo not given in full),3,-0.37
COCC[C@]1(NS(=O)(=O)c2ccccc2)CCN(Cc2cccn2C)C1,-12,2.2
O=C(Nc1ccccn1)C1CN(C(=O)c2cccs2)C1,-11,1.75
CC(C)(C)C(=O)N1CCC2(CC1)OCC(C(=O)NCC1CCCO1)N2C(=O)c1ccc(F)cc1 (stereo not given),5,-0.56
